Measured values: ChEMBL document CHEMBL5303300, “EUbOPEN Chemogenomics Library - Multiplex” (2023)

System: U2OS
Assay: Multiplex assay against U2OS
Format: toxicity, cell-based
Details: human, number of replicates 2
How it was run: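 Compound was added to live cells that had been stained at seeding with Hoechst33342, BioTracker Green Microtubule Cytoskeleton Dye, MitoTracker Red and Annexin V Alexa Fluor 680, and imaging followed on a CQ1 microscope at 37°C and 5% CO2. CellPathfinder machine-learning gating divided cells into Hoechst high-intensity objects or normal cells, normal cells into healthy, pyknosed or fragmented nuclei, and pyknosed cells into mitotic or apoptotic. Tubulin, mitochondrial-mass and membrane-permeability phenotypes are per cents of healthy-nucleus cells.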

[1] = 12 h, 1 µM, compound concentration 1 uM
[2] = 12 h, 10 µM, compound concentration 10 uM
[3] = 24 h, 1 µM, compound concentration 1 uM
[4] = 24 h, 10 µM, compound concentration 10 uM
[5] = 48 h, 1 µM, compound concentration 1 uM
[6] = 48 h, 10 µM, compound concentration 10 uM

| Structure (SMILES) | Population Fragmented Nuclei (%) [1] | Total Cell Count [1] | Total Cell Count [2] | Population Fragmented Nuclei (%) [3] | Total Cell Count [3] | Total Cell Count [4] | Total Cell Count [5] | Total Cell Count [6] | Population Fragmented Nuclei (%) [2] | Population Mitotic Cells (%) [2] | Population Fragmented Nuclei (%) [6] | Population Fragmented Nuclei (%) [4] | Population Mitotic Cells (%) [4] | other results |
| --- | --- | --- | --- | --- | --- | --- | --- | --- | --- | --- | --- | --- | --- | --- |
| COc1ccncc1C(=O)NC(=O)Nc1ccc(-c2ccccc2)c(C(F)(F)F)c1 | 23% and 3% | 26 and 235 | 49 and 228 | 21% and 2% | 38 and 305 | 59 and 316 | 50 and 665 | 127 and 639 | – | – | – | – | – | Population Fragmented Nuclei (%) [5]: 20% and 2% |
| COc1ccc2cc(S(=O)(=O)N[C@H](CC(=O)N[C@H](Cc3ccc(CN4[C@H](C)CCC[C@@H]4C)cc3)C(=O)N(C)C(C)C)c3ccc4c(c3)OCO4)ccc2c1.Cl | – | 35 and 221 | 33 and 207 | – | 40 and 292 | 33 and 246 | 64 and 409 | 27 and 261 | 31% and 2% | 0% and 33% | 37% and 6% | – | – | – |
| CSc1cc2c(cc1C(F)(F)F)N(C(=O)Nc1cccnc1)CC2 | 20% and 1% | 34 and 252 | 163 and 27 | 17% and 3% | 39 and 341 | 37 and 259 | 61 and 677 | 557 and 50 | 4% and 38% | – | – | 22% and 4% | 0% and 55% | Population Mitotic Cells (%) [5]: 16% and 53% |
| COc1ccccc1-c1cc(Nc2cccc(CS(N)(=O)=O)c2)ncn1 | – | 36 and 214 | 243 and 46 | 21% and 3% | 61 and 305 | 280 and 54 | 88 and 584 | 74 and 396 | 5% and 36% | – | – | 3% and 18% | – | Population Membrane Permeable-Phenotype (%) [2]: 2% and 13%; Population Membrane Permeable-Phenotype (%) [4]: 1% and 17% |
| COc1ccc(CC[C@@H](OC(=O)[C@@H]2CCCCN2C(=O)[C@H](c2cc(OC)c(OC)c(OC)c2)C2CCCCC2)c2cccc(OCCN3CCOCC3)c2)cc1OC | – | 37 and 210 | 42 and 214 | – | 43 and 263 | 44 and 220 | 60 and 382 | 50 and 234 | 29% and 4% | 0% and 29% | – | – | 26% and 3% | Population Mitochondria Different-Phenotype (%) [3]: 10% and 39%; Population Mitotic Cells (%) [5]: 42% and 12% |
| CC(C)c1c(NC(=O)Nc2ccc(Cl)cc2)c(=O)n(-c2ccccc2)n1C | 23% and 4% | 30 and 253 | 31 and 240 | 15% and 3% | 38 and 320 | 43 and 340 | 66 and 686 | 57 and 699 | 70% and 2% | 0% and 56% | 66% and 2% | 65% and 3% | 0% and 63% | Population Healthy Nuclei (%) [2]: 22% and 90%; Population Mitotic Cells (%) [6]: 0% and 44% |
| COc1cc(N(C)c2ccnc3ccc(C(F)(F)F)cc23)cc(OC)c1OC | 4% and 22% | 222 and 22 | 29 and 174 | – | 28 and 325 | 32 and 219 | 52 and 663 | 46 and 418 | 27% and 4% | – | 15% and 3% | 25% and 5% | – | – |
| CC(C)S(=O)(=O)c1ccccc1Nc1nc(N[C@@H]2CCCN(CCCCCCCNC(=O)COc3cccc4c3C(=O)N(C3CCC(=O)NC3=O)C4=O)C2)ncc1Cl (some centres undefined) | – | 41 and 224 | 42 and 274 | – | 45 and 240 | 52 and 259 | 49 and 234 | 243 and 46 | – | – | – | – | – | Population Mitochondria Different-Phenotype (%) [4]: 20% and 72%; Population Fragmented Nuclei (%) [5]: 22% and 7%; Population Membrane Permeable-Phenotype (%) [5]: 36% and 4%; Population Mitochondria Different-Phenotype (%) [5]: 18% and 4%; Population Membrane Permeable-Phenotype (%) [6]: 51% and 0%; Population Mitochondria Different-Phenotype (%) [6]: 51% and 0%; Population Tubulin-Different-Phenotype (%) [6]: 88% and 0% |
| CS(=O)(=O)c1ccc(C(=O)Nc2cccc(COc3cc(F)c(Br)cc3CN3CC[C@H](O)C3)c2)c(Cl)c1.O=CO | – | 42 and 190 | – | – | 50 and 281 | – | 63 and 466 | 90 and 275 | – | – | – | – | – | – |

Not every entry of the source has a single result; some have several. The other results are left out here. There may be further records. Values given together are repeats across runs, samples, wells, individuals or studies.
